Experimental data from PubChem BioAssay AID504832 (National Center for Advancing Translational Sciences (NCATS), 2011).
Out of some 310,000 compounds screened, about 18,000 (5.8%) were called active. The inconclusive results got no clear call from the source; some entries with a clear call stand among them for comparison. Calls follow the shape of the dose curve; as a rule, active = well fitted inhibition curve with a large enough effect; inconclusive = small, poorly fitted or top-dose-only effect, or another doubt; inactive = no such curve, though single readings can be large or run the other way. Potencies of inconclusive entries are left out as doubtful fits.

Assay: Primary qHTS for delayed death inhibitors of the malarial parasite plastid, 48 hour incubation
Conditions: P. falciparum luciferase growth in erythrocytes; series mostly up to 28.7 µM
Procedure, shortened: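 Here the parasites carry a stable luciferase gene and grow inside erythrocytes in Albumax-based RPMI medium with compound for one erythrocytic cycle. Activity is scored as loss of luminescent signal.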
Potency is read from the fitted curve at half-maximal effect; tags tell the direction and shape of the fitted curve.

| SMILES | Potency |
| --- | --- |
| Cc1cccc(OCC(=O)N2CCC(N3CCCCCC3)CC2)c1 | inconclusive [inhibitor, partial curve] |
| CCC(=O)n1nc(-c2cccnc2)nc1NCc1ccccc1 | inactive |
| Cc1cc(-n2cccn2)ccc1CN1CCN(C2CCCC2)C(CCO)C1 (centres undefined) | inconclusive [inhibitor, single point] |
| COc1ccc(C(=O)N2CCOC2CNC(=O)C(=O)NCCc2ccc(OC)c(OC)c2)cc1 (centres undefined) | inconclusive [inhibitor, single point] |
| CSCCC(N=Cc1c(O)n(-c2ccc(Br)cc2)c(=O)[nH]c1=O)C(=O)OC(C)(C)C (centres undefined) | inconclusive [inhibitor, partial curve, poor fit] |
| Cc1cccc(OCc2nnc(SCC(=O)N3CCCC3)n2C)c1 | inactive |
| O=C(NCC(c1ccco1)N1CCCCC1)c1cc2c(s1)CCCC2 (centres undefined) | active: 8.28 µM |
| CCCN(CCC)C(=O)CSc1nc2ccccc2c(=O)n1C1CCCC1 | inconclusive [inhibitor, full curve] |
| COC(c1ccccc1)c1nnc(CCC(=O)N(C)CCc2ccccc2)o1 (centres undefined) | inactive |
| Cn1cccc1Cc1nnc(SCC(=O)NCc2ccc3c(c2)OCO3)n1CCc1ccccc1 | inconclusive [inhibitor, partial curve] |
| C/C(=N\NC(=O)c1cccc(N/N=C(\C)c2ccccc2)c1)c1ccccc1 | inconclusive [inhibitor, single point] |
| COc1ccc(CN(C(=O)c2snc(C(N)=O)c2N)C(C)C(=O)NCc2ccc(F)cc2)cc1 (centres undefined) | inconclusive [inhibitor, single point] |
| O=C(N/N=C1\CCCc2ccccc21)c1ccccc1[N+](=O)[O-] | inconclusive [inhibitor, partial curve, poor fit] |
| COc1ccc(-c2ccc(CO)o2)cc1N | inactive |
| COc1ccc(N2CCN(C(=O)c3ccc(CS(=O)c4cccc(C)c4)o3)CC2)cc1 (centres undefined) | inconclusive [inhibitor, partial curve] |
| Cc1ccc(N(CC(=O)NCc2ccco2)C(=O)CCC(=O)Nc2ccccn2)c(C)c1 | inactive |
| Cc1ccc2nc(NC(=O)CSc3nnc(C)c(=O)n3N)sc2c1 | inactive |
| COc1ccc2c(c1)c(=O)c(C(=O)c1ccc(Cl)cc1)cn2CC(=O)Nc1ccc(F)cc1 | inconclusive [inhibitor, single point] |
| CC1CN(CCCCOc2cccc(Oc3ccccc3)c2)CC(C)O1 (centres undefined) | inconclusive [inhibitor, single point] |
